# Test results: the supplement of paper PMC3334620
# Whole data set: some 33,000 sequences, median “E-score (-0.5 to 0.5)” near -0.035, cut for the highest 2% near 0.34. The list shows a part of the results.
# Molecular target: T1, Mot3 (UniProt P54785)
# T1 sequence: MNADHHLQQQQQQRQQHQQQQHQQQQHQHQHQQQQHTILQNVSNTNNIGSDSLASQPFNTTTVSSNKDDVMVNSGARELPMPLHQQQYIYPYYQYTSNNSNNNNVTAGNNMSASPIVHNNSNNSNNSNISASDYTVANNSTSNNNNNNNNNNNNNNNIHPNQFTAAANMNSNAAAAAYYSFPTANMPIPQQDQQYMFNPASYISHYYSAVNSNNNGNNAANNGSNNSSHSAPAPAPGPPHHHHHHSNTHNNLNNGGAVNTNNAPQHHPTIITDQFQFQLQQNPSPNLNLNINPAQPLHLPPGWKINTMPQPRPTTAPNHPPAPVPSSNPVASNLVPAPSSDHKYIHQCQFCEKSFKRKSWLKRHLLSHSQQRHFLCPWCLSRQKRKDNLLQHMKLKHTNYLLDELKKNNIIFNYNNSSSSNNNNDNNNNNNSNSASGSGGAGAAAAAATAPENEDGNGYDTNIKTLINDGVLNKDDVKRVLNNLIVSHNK
# Experiment: PBM E-score (8-mer binding enrichment) (E-score (-0.5 to 0.5)); higher = stronger / more preferred TF binding; most listed sequences are background and not binding sites
# Conditions: protein concentration: 200 nM; construct: GST-full length
# How it was run: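 Using PURExpress in vitro transcription/translation, GST-tagged yeast transcription factors were made in full-length or DNA-binding-domain form. These were applied at about 100-200 nM to double-stranded universal all-10-mer Agilent arrays, and bound protein was detected with fluorescent anti-GST. Scans were normalised with masliner before the Universal PBM Analysis Suite assigned E-scores to ungapped eight-base words pooled with their reverse complements.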
row,Sequence,PBM E-score
1,AATTACTG,0.111
2,ACCCCATC,-0.194
3,CATGGACC,0.0841
4,ACAGTTGA,0.0328
5,ATCCGACC,-0.0318
6,ATCAGTAG,-0.044
7,AGTTTATA,0.0613
8,CCCATAAC,0.0479
9,CCATGTCA,0.287
10,GGCAGCCC,-0.195
11,AGCAAGCG,-0.308
12,CCTTGGAC,-0.161
13,CTTAGTGC,0.0583
14,GGGGACAC,-0.189
15,ACAGGCAT,0.409
16,AGCCGGAG,-0.151
17,AGGATCGA,-0.0463
18,GTATACAC,0.323
19,CCTGAACC,0.206
20,AAGCCTAC,0.0015
21,CACCGGGC,-0.309
22,GGGGGTGA,-0.228
23,AACCCACT,-0.119
24,AGGAGGAT,-0.0525
25,CTTGGAAA,0.088

row,Sequence,PBM E-score
1,ACCAGCCT,-0.27
2,GCTTGTCC,-0.0746
3,CCAGCGAG,-0.181
4,CCCGCTTC,-0.191
5,GTTAAAAA,0.285
6,ATCAATTC,-0.0725
7,GTTGCGCA,-0.0856
8,TGTCCAAA,0.116
9,GTGTCCGA,-0.14
10,AAGACCTT,-0.109
11,ATTCCGTC,-0.135
12,CTGAACAC,0.109
13,AGCCATCC,-0.22
14,GCGTAGGA,0.0588
15,CGCCCAGC,-0.121
16,GAGTACCC,-0.165
17,AGGCCGTC,-0.209
18,CACAGCCA,0.0935
19,AGCTGGGA,-0.224
20,ATCCGAGA,-0.269
21,CTACCTGC,0.04
22,CACGACCA,0.0645
23,AGGTATAG,-0.0472
24,GAATGCCA,-0.218
25,AGTAGCGG,-0.355

row,Sequence,PBM E-score
1,CGAAACGC,-0.117
2,GGCGGGGA,-0.131
3,CCGATCTA,-0.179
4,ACAGTGGT,-0.112
5,ATCCTTTC,0.00982
6,GGCCTAAA,0.0327
7,ACCAGTGG,-0.153
8,ACAGACAG,-0.0028
9,GACGTCGA,0.136
10,ACTGTCGA,-0.165
11,AAATGACC,0.0152
12,AAAACTTT,0.0215
13,AACGGCCA,-0.121
14,CACTGGTC,-0.0768
15,ATATTAAG,0.0832
16,GCAACGCC,0.0245
17,AGTTGCTC,-0.0447
18,CGGTTACC,-0.0387
19,GCGTCAAA,0.131
20,ACACGCGT,0.36
21,ATGTGACA,0.176
22,CCCAATCA,-0.114
23,CGTAGGTA,0.285
24,GCCTTGTA,0.354
25,CTATCGCA,-0.112

row,Sequence,PBM E-score
1,CTGTGCTA,-0.0938
2,AAACTCAC,-0.0147
3,ACGACTGC,-0.0855
4,GAGCCACA,-0.287
5,ATAGATTG,-0.0655
6,CGCCAAAG,-0.208
7,CGAATACC,0.112
8,AGATCCAA,-0.211
9,ATTGATCC,-0.137
10,TAACGTTA,0.162
11,TCGCGCGA,-0.264
12,AGAACTAG,-0.164
13,GGGTCGAA,-0.203
14,CGCAGAAG,-0.155
15,ATACCGGA,-0.101
16,AGGCCGGG,-0.282
17,AGATCTCC,-0.309
18,CAAGTGCG,-0.0614
19,ACAAGAAG,0.062
20,ATAAGAGG,-0.0973
21,GTGGCAGA,-0.201
22,ATGTGCCG,-0.259
23,CATCCCGG,-0.192
24,ACCTGTAG,0.146
25,GAACATGA,0.238

row,Sequence,PBM E-score
1,CCGCTTAC,-0.145
2,CGAAATTA,0.106
3,CATGCCTA,0.245
4,CCCTCGCC,-0.358
5,TTGCCAAA,-0.0722
6,AACCCTGA,0.0568
7,TACAAACA,0.161
8,CCGGCACC,-0.143
9,CTTATGCC,-0.039
10,CACGCGCG,0.0383
11,AACGCCAG,-0.0303
12,ATCGATTG,0.179
13,GCAAGGGC,-0.133
14,CACTTGAC,-0.0617
15,GACTTATC,-0.2
16,AGCTACTA,-0.0666
17,GCCCCGGC,-0.332
18,CGGTCCAC,-0.218
19,GGGCACGA,0.163
20,AAGAGCCG,-0.215
21,AATCATCG,-0.125
22,GGGCGACA,-0.194
23,GCCGCGAC,-0.259
24,CATGTTAA,0.411
25,ATCCCGAG,-0.305

row,Sequence,PBM E-score
1,ATTAGGCC,-0.111
2,GAGGAATA,0.097
3,ACTTTTTG,0.13
4,GTACTACA,0.308
5,ACCAGTCC,-0.224
6,TAGAATGA,0.0169
7,AGTGGAGG,-0.177
8,ATCGGAGG,0.0214
9,ACATGCGG,0.175
10,GCTATGCA,-0.154
11,ATCTACTC,-0.0854
12,CTAGAGCA,-0.00487
13,ATTCTCAC,-0.0526
14,GTACAGGA,0.343
15,ACTGTAAT,0.169
16,ACGCCGTG,0.172
17,CGGTTGAA,0.16
18,AGAGACGC,-0.0853
19,CTCACTTC,-0.318
20,GATTTGGC,-0.177
21,ATGCCCGA,-0.212
22,AGCATAGA,0.0052
23,ACGTCACT,-0.0663
24,CGGCGCAA,-0.0217
25,CCACATAA,-0.0841

row,Sequence,PBM E-score
1,TAATATTA,0.228
2,CCTCTCGC,-0.121
3,ATCGCAAT,-0.101
4,AGCCACAT,0.0539
5,CGCGACAA,-0.0189
6,AACAGTGT,0.0697
7,CACAAGCC,0.0891
8,CGACGATC,-0.201
9,CCCATTTA,0.00011
10,ATGATCAT,-0.0174
11,AAAGGAGG,0.0888
12,CAATAATC,-6e-05
13,CGAGGGCC,-0.158
14,GAAGTCTC,-0.125
15,CGGAAACA,0.0963
16,GATACACC,-0.0218
17,AGGCCGGA,-0.14
18,CATAGACG,-0.014
19,ACGAACGT,-0.0366
20,GCTTAAGC,0.101
21,CTCGGATA,-0.143
22,CTTCTTTC,-0.084
23,GCGCGAGA,-0.21
24,CGTCAAGA,0.057
25,TAGACCTA,-0.0264

row,Sequence,PBM E-score
1,CGTAAACC,0.0691
2,ATGGGGTC,-0.133
3,TGAGGTAA,0.0813
4,CTAGGTGA,-0.153
5,CAGTGCAG,-0.113
6,ACGCACGC,0.258
7,CGTAGCCA,-0.208
8,ACTGAAGG,0.259
9,AAACCTGA,-0.172
10,GCGCTTGA,-0.0372
11,ATGTACAT,0.378
12,AGCCGTCA,-0.239
13,CGTACCAG,0.00438
14,TTGGACAA,0.0838
15,ATGGTAAT,0.129
16,AGATCGTA,-0.0718
17,AACCATGG,-0.146
18,AGCCACGG,-0.23
19,ATTCGAGG,-0.135
20,CTCAACAA,0.238
21,CCAGAGGG,-0.161
22,ATCTTTGG,0.0243
23,GATCCTAA,-0.149
24,AGTCTAGC,-0.344
25,GACATCCC,-2e-05

row,Sequence,PBM E-score
1,AATATAAA,0.103
2,ATATTACA,0.332
3,GAATCGTC,-0.134
4,CTTGGTAA,0.184
5,CGGTTGGC,-0.12
6,GGCAGAAC,-0.0817
7,ACCGCGCT,-0.13
8,ACTGCGGA,-0.066
9,ACTCTCGC,-0.102
10,CCGACTGC,-0.15
11,ACTCAGCT,-0.172
12,ATCTGCAA,-0.0592
13,AGGAACGA,0.44
14,CCTGTAAA,0.335
15,CCCTGAAA,-0.0551
16,AAAGCCAA,-0.0602
17,AGATATGG,-0.259
18,AGTTTCCC,-0.306
19,CCACGAGC,-0.167
